Source: publication PMC10783007
These are yes or no findings as the source states them, for the method shown. In cells and extracts the contact can be indirect. Some binding calls cover weakened binding; strength is not graded here. For part of these data: Sequences can lack the tags named with a protein. Values belong to the binder of their own block, whether it stands above or below them.

Sequences of proteins named here, by UniProt entry; tags and fusion partners are left off.
UniProt Q7Z434: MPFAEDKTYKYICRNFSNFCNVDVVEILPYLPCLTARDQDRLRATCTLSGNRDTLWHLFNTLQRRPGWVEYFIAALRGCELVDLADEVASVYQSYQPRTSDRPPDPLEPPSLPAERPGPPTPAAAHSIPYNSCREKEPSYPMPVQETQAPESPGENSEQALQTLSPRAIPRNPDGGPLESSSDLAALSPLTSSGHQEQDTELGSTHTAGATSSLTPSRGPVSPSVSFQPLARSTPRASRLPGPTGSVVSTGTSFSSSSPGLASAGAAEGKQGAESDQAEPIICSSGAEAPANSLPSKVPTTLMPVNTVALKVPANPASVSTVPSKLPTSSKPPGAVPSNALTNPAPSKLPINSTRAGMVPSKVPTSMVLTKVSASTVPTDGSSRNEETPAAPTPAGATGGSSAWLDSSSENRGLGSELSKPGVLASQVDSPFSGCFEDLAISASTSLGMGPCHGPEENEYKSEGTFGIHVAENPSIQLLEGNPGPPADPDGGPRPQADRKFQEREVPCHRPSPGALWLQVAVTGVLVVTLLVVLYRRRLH

How the values were obtained:
[1] = molecular target: T1, Flag-tagged MDA5 (melanoma differentiation-associated protein 5) (UniProt Q9BYX4); test: co-IP; Flag-tagged bait transfected into HepG2 cells for 48 h; whole-cell lysates, IP with anti-Flag or IgG antibodies; endogenous USP15 blotted with anti-USP15
T1 sequence: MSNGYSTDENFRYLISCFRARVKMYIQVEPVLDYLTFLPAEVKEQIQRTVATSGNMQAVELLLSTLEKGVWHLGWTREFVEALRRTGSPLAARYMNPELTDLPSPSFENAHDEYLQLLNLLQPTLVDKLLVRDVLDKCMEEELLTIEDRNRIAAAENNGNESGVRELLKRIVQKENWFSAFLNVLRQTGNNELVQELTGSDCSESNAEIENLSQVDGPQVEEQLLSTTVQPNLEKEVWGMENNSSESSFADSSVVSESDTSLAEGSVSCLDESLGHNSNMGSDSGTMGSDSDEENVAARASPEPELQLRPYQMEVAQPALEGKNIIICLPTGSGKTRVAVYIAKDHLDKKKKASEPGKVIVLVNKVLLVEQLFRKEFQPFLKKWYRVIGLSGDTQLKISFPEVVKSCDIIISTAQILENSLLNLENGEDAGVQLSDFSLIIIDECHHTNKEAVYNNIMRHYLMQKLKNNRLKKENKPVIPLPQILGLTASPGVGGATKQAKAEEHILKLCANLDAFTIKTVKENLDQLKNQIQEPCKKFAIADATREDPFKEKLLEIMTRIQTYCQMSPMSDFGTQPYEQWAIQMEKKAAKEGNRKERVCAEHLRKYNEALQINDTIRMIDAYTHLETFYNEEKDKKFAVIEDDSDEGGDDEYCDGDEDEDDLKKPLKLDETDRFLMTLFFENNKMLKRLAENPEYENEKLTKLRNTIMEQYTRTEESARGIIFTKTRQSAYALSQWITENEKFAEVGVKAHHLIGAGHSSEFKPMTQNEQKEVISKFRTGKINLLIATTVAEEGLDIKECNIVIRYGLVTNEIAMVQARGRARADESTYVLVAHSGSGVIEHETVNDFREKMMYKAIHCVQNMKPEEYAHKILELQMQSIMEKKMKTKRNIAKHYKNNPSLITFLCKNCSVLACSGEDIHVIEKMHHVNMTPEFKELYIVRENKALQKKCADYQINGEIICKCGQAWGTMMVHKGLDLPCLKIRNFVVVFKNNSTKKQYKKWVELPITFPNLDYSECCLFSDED

[2] = molecular target: T2, Flag-tagged IRF3 (interferon regulatory factor 3) (UniProt Q14653); test: as above
T2 sequence: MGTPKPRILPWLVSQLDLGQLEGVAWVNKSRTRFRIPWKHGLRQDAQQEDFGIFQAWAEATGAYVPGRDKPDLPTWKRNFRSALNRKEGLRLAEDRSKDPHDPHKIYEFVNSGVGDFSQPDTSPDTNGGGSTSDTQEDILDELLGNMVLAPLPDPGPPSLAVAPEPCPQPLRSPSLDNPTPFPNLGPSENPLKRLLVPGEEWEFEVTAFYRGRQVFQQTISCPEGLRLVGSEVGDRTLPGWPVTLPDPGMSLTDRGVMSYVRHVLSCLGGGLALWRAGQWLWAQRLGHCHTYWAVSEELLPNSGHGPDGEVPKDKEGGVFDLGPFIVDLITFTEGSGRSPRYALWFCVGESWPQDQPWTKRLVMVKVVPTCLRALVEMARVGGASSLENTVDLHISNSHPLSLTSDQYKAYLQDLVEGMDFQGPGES

[3] = molecular target: Flag-tagged MAVS (mitochondrial antiviral-signaling protein) (UniProt Q7Z434); test: as above
[4] = molecular target: T3, Flag-tagged RIG-I (in HepG2) (UniProt O95786); test: as above
T3 sequence: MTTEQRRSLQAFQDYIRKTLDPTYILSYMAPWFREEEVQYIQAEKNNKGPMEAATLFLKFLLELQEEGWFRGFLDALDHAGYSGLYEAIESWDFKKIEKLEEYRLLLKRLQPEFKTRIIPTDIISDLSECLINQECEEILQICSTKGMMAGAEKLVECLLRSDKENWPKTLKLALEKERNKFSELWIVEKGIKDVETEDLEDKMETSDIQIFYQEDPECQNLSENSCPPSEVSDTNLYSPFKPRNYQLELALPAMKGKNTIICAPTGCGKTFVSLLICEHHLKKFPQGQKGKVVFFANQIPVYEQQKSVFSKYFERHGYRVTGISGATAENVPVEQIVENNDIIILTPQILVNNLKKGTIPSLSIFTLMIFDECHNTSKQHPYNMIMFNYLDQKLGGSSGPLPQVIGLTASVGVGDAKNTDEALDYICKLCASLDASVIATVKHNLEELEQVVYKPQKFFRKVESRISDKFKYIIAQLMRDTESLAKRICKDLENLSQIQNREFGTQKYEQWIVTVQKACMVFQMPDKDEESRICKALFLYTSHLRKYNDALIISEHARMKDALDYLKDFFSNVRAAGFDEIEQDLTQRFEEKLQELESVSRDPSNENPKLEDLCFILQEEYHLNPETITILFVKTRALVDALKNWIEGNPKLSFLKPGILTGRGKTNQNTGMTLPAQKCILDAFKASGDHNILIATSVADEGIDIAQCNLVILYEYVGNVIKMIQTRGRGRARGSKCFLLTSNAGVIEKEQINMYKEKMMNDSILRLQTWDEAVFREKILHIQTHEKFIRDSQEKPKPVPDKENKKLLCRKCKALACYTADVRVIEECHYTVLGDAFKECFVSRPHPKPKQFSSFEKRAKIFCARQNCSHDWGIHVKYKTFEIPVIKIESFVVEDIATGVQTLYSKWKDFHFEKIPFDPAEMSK

[5] = molecular target: T4, retinoic acid-inducible gene-I protein (RIG-I), endogenous (human (endogenous in HepG2)) (UniProt O95786); test: co-IP; HepG2 lysate; IP with anti-RIG-I or IgG antibodies; endogenous RIG-I and USP15 detected by WB
T4 sequence: T3 sequence

[6] = molecular target: T5, Flag-tagged TBK1 (TANK-binding kinase 1), Q9UHD2; test: co-IP; Flag-tagged bait transfected into HepG2 cells for 48 h; whole-cell lysates, IP with anti-Flag or IgG antibodies; endogenous USP15 blotted with anti-USP15; details: remark: other sources report otherwise
T5 chain: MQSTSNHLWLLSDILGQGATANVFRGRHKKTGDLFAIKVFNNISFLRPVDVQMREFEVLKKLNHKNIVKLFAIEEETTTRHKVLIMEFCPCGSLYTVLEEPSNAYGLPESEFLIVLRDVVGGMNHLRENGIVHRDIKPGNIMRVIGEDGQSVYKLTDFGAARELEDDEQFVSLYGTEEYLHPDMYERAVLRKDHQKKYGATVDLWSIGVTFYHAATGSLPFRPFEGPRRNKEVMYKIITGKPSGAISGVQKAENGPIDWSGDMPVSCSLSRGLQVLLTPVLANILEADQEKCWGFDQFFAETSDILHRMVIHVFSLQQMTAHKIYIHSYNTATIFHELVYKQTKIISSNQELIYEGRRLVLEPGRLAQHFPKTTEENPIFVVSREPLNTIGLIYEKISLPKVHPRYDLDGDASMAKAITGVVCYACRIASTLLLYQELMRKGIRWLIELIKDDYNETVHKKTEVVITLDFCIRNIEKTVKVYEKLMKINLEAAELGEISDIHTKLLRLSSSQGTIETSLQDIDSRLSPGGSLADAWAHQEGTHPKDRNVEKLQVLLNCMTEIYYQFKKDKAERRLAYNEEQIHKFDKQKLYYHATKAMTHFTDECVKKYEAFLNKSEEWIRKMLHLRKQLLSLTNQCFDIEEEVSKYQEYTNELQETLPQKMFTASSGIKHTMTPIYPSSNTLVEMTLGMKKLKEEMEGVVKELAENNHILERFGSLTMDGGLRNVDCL

- binding [1]: no binding
- binding [2]: no binding
- binding [3]: no binding
- binding [4]: binds
- binding [5]: binds
B1: USP15 (endogenous) (enzyme, UniProt Q9Y4E8 1-981)
chain: MAEGGAADLDTQRSDIATLLKTSLRKGDTWYLVDSRWFKQWKKYVGFDSWDKYQMGDQNVYPGPIDNSGLLKDGDAQSLKEHLIDELDYILLPTEGWNKLVSWYTLMEGQEPIARKVVEQGMFVKHCKVEVYLTELKLCENGNMNNVVTRRFSKADTIDTIEKEIRKIFSIPDEKETRLWNKYMSNTFEPLNKPDSTIQDAGLYQGQVLVIEQKNEDGTWPRGPSTPKSPGASNFSTLPKISPSSLSNNYNNMNNRNVKNSNYCLPSYTAYKNYDYSEPGRNNEQPGLCGLSNLGNTCFMNSAIQCLSNTPPLTEYFLNDKYQEELNFDNPLGMRGEIAKSYAELIKQMWSGKFSYVTPRAFKTQVGRFAPQFSGYQQQDCQELLAFLLDGLHEDLNRIRKKPYIQLKDADGRPDKVVAEEAWENHLKRNDSIIVDIFHGLFKSTLVCPECAKISVTFDPFCYLTLPLPMKKERTLEVYLVRMDPLTKPMQYKVVVPKIGNILDLCTALSALSGIPADKMIVTDIYNHRFHRIFAMDENLSSIMERDDIYVFEININRTEDTEHVIIPVCLREKFRHSSYTHHTGSSLFGQPFLMAVPRNNTEDKLYNLLLLRMCRYVKISTETEETEGSLHCCKDQNINGNGPNGIHEEGSPSEMETDEPDDESSQDQELPSENENSQSEDSVGGDNDSENGLCTEDTCKGQLTGHKKRLFTFQFNNLGNTDINYIKDDTRHIRFDDRQLRLDERSFLALDWDPDLKKRYFDENAAEDFEKHESVEYKPPKKPFVKLKDCIELFTTKEKLGAEDPWYCPNCKEHQQATKKLDLWSLPPVLVVHLKRFSYSRYMRDKLDTLVDFPINDLDMSEFLINPNAGPCRYNLIAVSNHYGGMGGGHYTAFAKNKDDGKWYYFDDSSVSTASEDQIVSKAAYVLFYQRQDTFSGTGFFPLDRETKGASAATGIPLESDEDSNDNDNDIENENCMHTN

- binding [6]: no binding
B2: USP15 (endogenous), Q9Y4E8 1-981 (enzyme)
chain: B1 chain
